Screen size: about 110,000 compounds; about 230 (0.21%) showed an effect of 50% or more. The list shows a part of the results.

From paper PMC6919601, “Identification of Plasmodium dipeptidyl aminopeptidase allosteric inhibitors by high throughput screening” (PLoS ONE, 2019) come the findings set out here.
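Further: 30 min substrate incubation versus DMSO and 10 µM JCP410 controls.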

Sequence of DPAP1 (Q8IIJ9 whole entry, looked up): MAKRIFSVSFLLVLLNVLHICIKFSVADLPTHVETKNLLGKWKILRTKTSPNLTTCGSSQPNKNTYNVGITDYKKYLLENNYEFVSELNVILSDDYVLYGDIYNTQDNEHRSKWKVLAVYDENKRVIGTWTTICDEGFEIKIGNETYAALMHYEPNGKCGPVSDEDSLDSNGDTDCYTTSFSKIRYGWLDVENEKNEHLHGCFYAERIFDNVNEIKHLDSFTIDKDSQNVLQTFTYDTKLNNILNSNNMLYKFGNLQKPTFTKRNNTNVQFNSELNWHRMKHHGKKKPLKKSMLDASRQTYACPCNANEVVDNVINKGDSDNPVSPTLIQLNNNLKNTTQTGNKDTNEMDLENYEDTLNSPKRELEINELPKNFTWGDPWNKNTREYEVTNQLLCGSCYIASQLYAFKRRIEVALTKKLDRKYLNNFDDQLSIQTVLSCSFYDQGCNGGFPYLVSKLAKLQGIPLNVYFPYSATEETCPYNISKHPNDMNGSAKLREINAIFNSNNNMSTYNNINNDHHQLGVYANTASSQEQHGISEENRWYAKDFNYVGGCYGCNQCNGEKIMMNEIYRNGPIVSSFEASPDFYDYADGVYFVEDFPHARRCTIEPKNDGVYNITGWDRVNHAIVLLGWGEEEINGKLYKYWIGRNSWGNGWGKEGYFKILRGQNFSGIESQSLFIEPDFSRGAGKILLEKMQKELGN

This assay concerns the target DPAP1 (Plasmodium falciparum, UniProt Q8IIJ9). Description: primary screen, percent inhibition; read by cleavage of a fluorogenic dipeptide substrate; higher = more effect of the substance. Further details: species or system P. falciparum D10 trophozoite lysates; single well.
In the case of `CCOc1ccc(S(=O)(=O)Nc2ccncc2)c(C)c1C`, the “% Inhibition @ 10 uM” value is 3.36%.

`COc1ccc2[nH]c(C)c(CCNCc3c(C)nn(C)c3Cl)c2c1`: the “% Inhibition @ 10 uM” value is reported as -4.35%.

Turning to `O=C(NCc1ccccn1)C1CCN(c2ncnc3c2nc2n3CCCCC2)CC1`, the “% Inhibition @ 10 uM” value came out at 5.7%.

Turning to `NC1=C(c2nc(O)c3ccccc3n2)C(=O)CN1c1ccc(Cl)cc1`, the “% Inhibition @ 10 uM” value is 0.751%.

For the compound `Cc1cc(C)nc(SCC(=O)c2cccc3ccccc23)n1`, the “% Inhibition @ 10 uM” value was -7.23%.

With `CN(Cc1ccco1)S(=O)(=O)c1ccc2[nH]cc(C=O)c2c1`, the “% Inhibition @ 10 uM” value came out at 0.718%.

For `CSc1nc(C)cc(C(F)(F)F)c1C#N`, the “% Inhibition @ 10 uM” value came out at 4.97%.

With `CCOC(=O)C1=C(C)N=c2s/c(=C\c3ccc(N(C)C)cc3)c(=O)n2C1c1ccc2c(c1)OCO2` (centres unmarked), the “% Inhibition @ 10 uM” value is listed as -5.28%.

Turning to `CCC1CCCCN1CCCNC(=O)C1CCN(S(=O)(=O)N2CCCCC2)CC1` (centres unmarked), the “% Inhibition @ 10 uM” value is reported as -1.34%.

`CCC(C)CNC(=O)C(C)Oc1ccc(Cl)cc1Cl` (centres unmarked): the “% Inhibition @ 10 uM” value is reported as 4.05%.

For `COc1cc(OC)cc(C(=O)N2CCCC2)c1`, the “% Inhibition @ 10 uM” value is reported as -1.05%.

For the compound `CCN1CCN(C(=O)c2ccc(Cn3c(SCc4ccc(F)cc4)nc4ccncc43)cc2)CC1`, the “% Inhibition @ 10 uM” value is listed as -0.23%.

Consider `CCOc1ccc(NC(=O)c2cc(OC)c(OC)c(OC)c2)cc1`, for which the “% Inhibition @ 10 uM” value is given as -3.34%.

In the case of `CC(C)CS(=O)(=O)C1=NN2C(=N)/C(=C\c3ccc(O)c(Br)c3)C(=O)N=C2S1`, the “% Inhibition @ 10 uM” value is 1.9%.

As to `COc1cccc2c1cc1c(=O)n(CC(=O)NCc3ccccc3Cl)nc(C)n12`, the “% Inhibition @ 10 uM” value is 1.68%.

Take `Cc1ccc(S(=O)(=O)N2CC(=O)Nc3ccccc32)cc1C`: the “% Inhibition @ 10 uM” value is listed as -0.992%.

Consider `CCC(C)Cn1c(CCNC(=O)c2ccco2)nc2ccccc21` (centres unmarked), for which the “% Inhibition @ 10 uM” value was -1.35%.

For the compound `O=C(Cn1cnc2sc3c(c2c1=O)CCCC3)NCCCC(=O)N1CCC2(CC1)OCCO2`, the “% Inhibition @ 10 uM” value is -6.13%.

Regarding `CC(C)c1ccc(CN2CCN(c3cccc(Cl)c3)CC2)cc1`, the “% Inhibition @ 10 uM” value was -2.81%.

For the compound `COC(=O)c1ccc(NC(=O)[C@@H]2C3C=CC(C3)[C@@H]2C(=O)O)cc1` (some centres unmarked), the “% Inhibition @ 10 uM” value is -4.43%.

Consider `CCOC(=O)NC(=O)/C(=C/Nc1ccc(Cl)c(Cl)c1Cl)C(C)=O`, for which the “% Inhibition @ 10 uM” value is -0.996%.

In the case of `CC(=O)c1cc2c(cc1NC(=O)c1ccc(C)cc1)OCO2`, the “% Inhibition @ 10 uM” value is -5.32%.

For the compound `CC(C)(C)NC(=O)c1cnn2c1NC(c1ccc(F)cc1)CC2C(F)(F)F` (centres unmarked), the “% Inhibition @ 10 uM” value was -1.93%.

In the case of `Cn1cc(Br)c(C(=O)Nc2ccc(Cl)cc2Cl)n1`, the “% Inhibition @ 10 uM” value is recorded as -0.687%.

`CC(C)c1ccc(C2C(C(=O)c3ccccc3)=C(O)C(=O)N2CCCn2ccnc2)cc1` (centres unmarked): the “% Inhibition @ 10 uM” value was -1.51%.

For `c1ccc(CN2CCN(Cc3ccc4ccccc4c3)CC2)cc1`, the “% Inhibition @ 10 uM” value was -6.21%.

Regarding `OC1CCN(Cc2cccc(C(F)(F)F)c2)CC1`, the “% Inhibition @ 10 uM” value is -0.192%.

As to `CC1CCN(C(=O)c2cc(Br)cc(Br)c2)CC1`, the “% Inhibition @ 10 uM” value came to 7.5%.

Take `O=C(O)CC(NS(=O)(=O)c1ccc(Cl)cc1)c1ccccc1` (centres unmarked): the “% Inhibition @ 10 uM” value amounted to 4.74%.

In the case of `COc1ccc(C2C(C#N)=C(N)Oc3c2cc(Cl)c2ccccc32)cc1` (centres unmarked), the “% Inhibition @ 10 uM” value was 5.09%.

For `c1ccc2c(SCCc3ccncc3)cccc2c1`, the “% Inhibition @ 10 uM” value amounted to 0.968%.

As to `Cc1cc(C)c2c(-n3cccc3)c(C(=O)N3CCN(C(=O)c4ccco4)CC3)sc2n1`, the “% Inhibition @ 10 uM” value is on record as -4.68%.

In the case of `O=C(NC(=O)c1cccc(C(F)(F)F)c1)OC[C@@H]1CCCN2CCCCC12` (some centres unmarked), the “% Inhibition @ 10 uM” value is listed as -4.49%.

With `Cc1ccc(-c2nc3sc(C)c(C)c3c(=O)o2)cc1`, the “% Inhibition @ 10 uM” value worked out at 1.27%.

Turning to `CCc1ccc(CNC(=O)CCc2cn(C)c3ccccc23)cc1`, the “% Inhibition @ 10 uM” value is 5.23%.

As for `COC(=O)c1sccc1NC(=S)N1CC=C(c2ccccc2)CC1`, the “% Inhibition @ 10 uM” value was -8.16%.

`O=C(COc1ccc2ccccc2c1)Nc1ccc(S(=O)(=O)Nc2ccc(F)cc2)cc1`: the “% Inhibition @ 10 uM” value is 0.538%.

As for `COc1ccc2c(c1)CN(Cc1ccccc1)CO2`, the “% Inhibition @ 10 uM” value is -1.82%.

Consider `CCO/C(O)=C1\C(C)=NC2=C(C(=O)CC(C)(C)C2)C1c1ccc(Br)o1` (centres unmarked), for which the “% Inhibition @ 10 uM” value was found to be 1.24%.

For the compound `CCOc1ccccc1-c1cc(NC(=O)Cn2ncc3c(=O)oc4ccccc4c32)on1`, the “% Inhibition @ 10 uM” value is -0.431%.

With `COc1ccc2nc3sc(C(=O)NCCC(C)C)cc3cc2c1`, the “% Inhibition @ 10 uM” value is given as -5.98%.

On to `CCc1ccc(OCC(=O)N(Cc2cccc(Cl)c2)C2CCS(=O)(=O)C2)cc1` (centres unmarked), for which the “% Inhibition @ 10 uM” value was -6.94%.

Regarding `CCCCC(=O)Nc1ccc(S(=O)(=O)NC(=O)CCC)cc1`, the “% Inhibition @ 10 uM” value is -3.19%.

Consider `Cc1nn(CC(=O)NCCC(C)C)c(=O)c2cc3sccc3n12`, for which the “% Inhibition @ 10 uM” value was 1.8%.

Consider `Brc1csc(CN2CCc3c([nH]c4ccccc34)C2)c1`, for which the “% Inhibition @ 10 uM” value is listed as 7.55%.

With `N#CC1=C(SCC(N)=O)NC(=O)CC1c1ccc(Br)cc1` (centres unmarked), the “% Inhibition @ 10 uM” value came to 1.38%.

In the case of `COc1cccc(C2C3=C(O)CC(C)(C)CC3=NC(C)=C2C(=O)Nc2cccc(C)n2)c1` (centres unmarked), the “% Inhibition @ 10 uM” value is 4.09%.

In the case of `CCOCCn1c(CN(Cc2ccccc2)Cc2ccccc2)nc2c1c(=O)n(C)c(=O)n2C`, the “% Inhibition @ 10 uM” value stood at 2%.

With `COc1ccc(Cl)cc1N(CC(=O)NC(C)c1ccccc1)S(C)(=O)=O` (centres unmarked), the “% Inhibition @ 10 uM” value was -5.27%.

With `O=C(c1ccco1)N1CCc2ccccc21`, the “% Inhibition @ 10 uM” value is -3.65%.
